# Hit rate of the full screen: of about 45,000 compounds, about 200 (0.44%) were called active. Another 7% or so got no clear call; they are omitted. Calls follow the shape of the dose curve; as a rule, active = well fitted activation curve with a large enough effect; inconclusive = small, poorly fitted or top-dose-only effect; inactive = no such curve, though single readings can be large or run the other way. The list shows a part of the results.
# Test: qHTS of TDP-43 Inhibitors: NCGC Sytravon Library Screen; also: 0% is about no effect; nearly all actives have a fitted effect of over 55% in size
# Details: yeast TDP-43 toxicity rescue, BacTiter-Glo growth, 24 h; series mostly up to 46.1 µM; growth rescue (activation): at the top concentration
# Summary of the method: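 TDP-43-expressing yeast, pregrown in raffinose, seeded at OD600 0.02 in galactose medium with compound for 24 hr at 30 deg C. Growth read by BacTiter-Glo luminescence, so rescue of toxicity appears as activation.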
row,SMILES,growth rescue (activation)
1,Cc1ccc(/C=C/C(=O)N2CC(=O)Nc3ccccc32)o1,inactive: 0.325%
2,O=C(CSc1nnc2c(n1)[nH]c1ccccc12)Nc1ccc(S(=O)(=O)Nc2ncccn2)cc1,inactive: -1.73%
3,O=C(NCCN1C(=O)S/C(=C/c2cccnc2)C1=O)C1CC(=O)N(Cc2ccccc2)C1 (configuration not stated),inactive: 6.24%
4,COc1cccc(CC2(CO)CCCN(Cc3ccc4c(c3)OCCO4)C2)c1 (configuration not stated),inactive: 9.91%
5,C=CCN(c1ccccc1OC)S(=O)(=O)c1cccc(C(=O)NC2=NCCS2)c1,inactive: -61.9%
6,Cc1cc(C(=O)N/N=C/C(Cl)=C/c2ccccc2)c(C)o1,inactive: 5.59%
7,COc1ccccc1OCCOCCOc1c(C)cc(C)cc1Br,inactive: 5.25%
8,Cc1ccc(NC(=O)CN2C(=O)c3ccccc3C2=O)c(C)c1,inactive: 7.15%
9,COc1ccc(-c2nnc(SCC(=O)N3CCOCC3)o2)cc1,inactive: -24.9%
10,CCC(C)Nc1nnc(SCC(=O)c2c(N)n(C3CC3)c(=O)[nH]c2=O)s1 (configuration not stated),inactive: -0.754%
11,Cc1cccc(Oc2ccc(NC(=O)C3CC=CCC3C(=O)O)cc2)c1 (configuration not stated),inactive: 7.03%
12,Cc1nonc1NC(=O)CSc1cn[nH]n1,inactive: -3.65%
13,COc1ccc(-n2c(C)nnc2SCC(=O)Nc2ccccc2F)cc1,inactive: 5.2%
14,CC(O)CCc1nc2ccc(C(=O)O)cc2[nH]1 (configuration not stated),inactive: 2.02%
15,COc1ccccc1C(=O)COC(=O)c1ccccc1O,inactive: 20.7%
16,CC(CC(=O)O)CC(=O)NNC(=O)c1cccc(Br)c1 (configuration not stated),inactive: 9.56%
17,Cc1c(C#N)c2ccccc2n1CC(=O)NCc1cccnc1,inactive: 19.1%
18,COc1ccc(-n2ncc3c2ncn2nc(-c4ccc(OC)c(OC)c4)nc32)cc1,inactive: 1.5%
19,Cn1c(=O)c2c(nc(NCc3ccco3)n2CCc2ccccc2)n(C)c1=O,inactive: -26.7%
20,Cc1ccc(F)cc1NC(=O)CCOc1ccccc1,inactive: 19.9%
21,CC(=O)NS(=O)(=O)c1ccc(NC(=O)c2cc(-c3cccs3)nc3ccccc23)cc1,inactive: -12.3%
22,Cc1cccnc1NC1(C(F)(F)F)N=C2SCCN2C1=O (configuration not stated),inactive: 2.86%

row,SMILES,growth rescue (activation)
1,COc1cccc(NC(=O)CCC(=O)Nc2cc(OC)c(NC(=O)c3cccs3)cc2OC)c1,inactive: -3.62%
2,O=C(Nc1ccc(S(=O)(=O)N2CCCC2)cc1)C1CC(=O)N(c2ccc(F)cc2)C1 (configuration not stated),inactive: -1.86%
3,C=CCn1c(SCC(N)=O)nnc1-c1cc2c(s1)CCC(CC)C2 (configuration not stated),inactive: 1.59%
4,O=C(CN1C(=O)C2CC=CCC2C1=O)Nc1nc2ccc(F)cc2s1 (configuration not stated),inactive: -6.62%
5,O=C(CNCCc1ccc(Cl)cc1Cl)NCc1ccco1,inactive: 6.77%
6,Cc1cc(C)n(-c2ccc(Cl)c(Cl)c2)n1,inactive: 16%
7,COc1ccc(CCNC(=O)c2ccccc2NS(=O)(=O)c2c(F)cccc2F)cc1,inactive: 5.85%
8,Cn1c(=O)c2cc(NC(=O)NCCc3ccccc3)ccc2n1Cc1ccc(F)cc1,inactive: -1.6%
9,COc1ccc(Cn2c(=O)[nH]c3cc(C(=O)NCCCN4CCCCCC4)ccc3c2=O)cc1,inactive: 1.68%
10,FC(F)(F)c1cccc(Nc2nc3nonc3nc2Nc2ccc(Cl)cc2)c1,inactive: -91.5%
11,CS(=O)(=O)N1CCN(c2ccccc2NC(=O)c2ccc(Cl)cc2)CC1,inactive: 27.1%
12,COc1ccc(/C=C/C(=O)NCc2ccccn2)cc1OC,inactive: 2.94%
13,Cc1cccc(N2CC(C(=O)OCC(=O)Nc3sccc3C(N)=O)CC2=O)c1C (configuration not stated),inactive: 6.53%
14,N#C/C(=C\c1c[nH]c2ccccc12)C(=O)NCC1CCCO1 (configuration not stated),inactive: 14.8%
15,COc1ccc(/C=C(\NC(=O)c2ccc([N+](=O)[O-])cc2)C(=O)NCCCN2CCOCC2)cc1,inactive: 2.51%
16,CC(C)(Cc1ccc(O)cc1)NC(=O)CC(=O)N=Nc1c(O)[nH]c2cc(Br)ccc12,inactive: -2.7%
17,COc1ccc(/C=C2\SC(=S)N(NS(=O)(=O)c3ccc(C)cc3)C2=O)c(OC)c1,inactive: 4.05%
18,Cc1ccc([N+](=O)[O-])cc1NC(=O)c1ccoc1C,inactive: -2.49%
19,Cc1ccc(NC(=O)CSc2nnnn2C)cc1S(=O)(=O)N(C)C,inactive: 7.26%
20,COc1cc(Cl)c(C)cc1NC(=O)CCNC(=O)c1ccco1,inactive: 7.72%
21,COc1cccc(/C=N/n2c(-c3cc(C)[nH]n3)n[nH]c2=S)c1O,inactive: -13.2%
22,CCN(C(=O)Cn1c(=O)oc2cc(S(=O)(=O)N3CCCCCC3)ccc21)c1cccc(C)c1,inactive: 2.97%

row,SMILES,growth rescue (activation)
1,COc1ccc(-c2cc(C(=O)NC(Cc3c[nH]c4ccccc34)C(=O)O)c(C)o2)cc1OC (configuration not stated),inactive: -3.51%
2,O=C(Nc1ccc(N2CCOCC2)cc1)c1ccc([N+](=O)[O-])o1,inactive: 29.1%
3,O=C(CN1C(=O)NC(Cc2c[nH]c3ccccc23)C1=O)NCCc1ccccc1 (configuration not stated),inactive: -10.4%
4,CC(=O)N1CCN(c2ccc(Nc3nc(C)nc4c3oc3ccccc34)cc2)CC1,inactive: 18.8%
5,CCN(CC(=O)NCc1cccs1)C(=O)c1cccc(S(=O)(=O)N2CCc3ccccc32)c1,inactive: 9.72%
6,COc1ccc(S(=O)(=O)N2CCc3ccccc32)cc1C(=O)N1CCC(C)CC1,inactive: 13.1%
7,O=c1[nH]cnc2c1nc(NCc1ccccc1)n2C1O[C@@H](CO)[C@H](O)[C@@H]1O (some centres not stated),inactive: -9.67%
8,Cc1cccc(S(=O)(=O)NC(=O)C2(C)CCN2C(=O)CCC2CCCC2)c1 (configuration not stated),inactive: 10.9%
9,O=c1nc2ccccc2c2n1CC(CN1CCN(Cc3ccccc3)CC1)N2 (configuration not stated),inactive: 22.7%
10,COc1ccc2[nH]c(=O)c(CNc3ccccc3C)cc2c1,inactive: -21.2%
11,CCCCC(=O)N/C(N)=N/c1nc2ccccc2o1,inactive: 25.7%
12,COc1ccc(-c2csc(NC(=O)C3CC(=O)N(c4ccc5c(c4)OCCO5)C3)n2)cc1 (configuration not stated),inactive: 19.4%
13,CCC(C)c1ccccc1N=Cc1ccc2c(c1)OCO2 (configuration not stated),inactive: 1.17%
14,CCCC(=O)C1=C(O)C(C(=O)OC)C(C)(C)CC1=NCCc1ccccc1 (configuration not stated),inactive: 3.94%
15,Cc1cccc(NC(=O)C(=O)NCCCN2CCOCC2)c1,inactive: 2.6%
16,C=CCn1c(-c2ccccc2)nc2nc3ccccc3nc21,inactive: 19.5%
17,CC(=O)Nc1ccc(NC(=O)CC2SC(=O)N(CC(=O)c3ccccc3)C2=O)cc1 (configuration not stated),inactive: 3.82%
18,Nc1nc(NC(=O)c2ccccc2Cl)nn1-c1ccccc1,inactive: 3.63%
19,C=CCNC(=S)N/N=C(\C)c1ccc(OC)cc1,inactive: 10.1%
20,COc1ccc(C)cc1NC(=O)CCNS(=O)(=O)c1cccc(C(F)(F)F)c1,inactive: -11.5%
21,CCN1CCN(CC(O)COc2ccc(C)c(C)c2)CC1 (configuration not stated),inactive: 8.27%
22,Cc1ccccc1C(=O)Nc1ccc(N2CCCCCC2)cc1,inactive: 13.2%

row,SMILES,growth rescue (activation)
1,COc1ccc(/C=N/NC(=O)c2ccc(=O)[nH]n2)cc1OC,inactive: -4.71%
2,CC(Sc1nc2sccc2c(=O)n1-c1ccccc1)C(N)=O (configuration not stated),inactive: 12.2%
3,C=C1CCC[C@]2(C)C[C@H]3OC(=O)C(CN[C@@H](C)c4ccccc4)[C@H]3CC12 (some centres not stated),inactive: 17.2%
4,Cc1cc2oc(=O)cc(CN3CCOCC3)c2cc1C(C)C,inactive: -27.6%
5,COCC(=O)OCc1cc2cccc(C)c2[nH]c1=O,inactive: 7.52%
6,Cc1cnc(NC(=O)Cc2ccccc2F)s1,inactive: -2.05%
7,Cc1cc(C2C(C#N)=C(N)SC(N)=C2C#N)c(C)s1,inactive: 38.5%
8,CCN1CCCC1CNCC(=O)Nc1ccc(OC(F)(F)F)cc1 (configuration not stated),inactive: 17.2%
9,CNC(=S)N/N=C/c1c(C)c(C(=O)c2ccc(F)cc2)n2ccccc12,inactive: 13.3%
10,CC(C(=O)OCC(=O)Nc1cccc(S(=O)(=O)N(C)C)c1)N1C(=O)c2ccccc2C1=O (configuration not stated),inactive: 7.32%
11,Cc1ccc(N(CC(=O)N2CCCC2)S(C)(=O)=O)c(C)c1,inactive: 5.33%
12,Cc1nc(C(F)(F)F)ccc1C(=O)N1CCC1(C)C(=O)NS(=O)(=O)c1cccc(Cl)c1 (configuration not stated),inactive: -1.65%
13,N#CC1=C(N)Oc2cc(N)ccc2C1c1ccccc1 (configuration not stated),inactive: -3.8%
14,CC(C)NC(=O)c1ccc2c(c1)N(CC(=O)N1CCCCC1)C(=O)C(C)(C)O2,inactive: -13.1%
15,O=C(CN1CCOCC1)Nc1nc(-c2ccc3c(c2)CCN3S(=O)(=O)c2ccccc2)cs1,inactive: -0.53%
16,CC(=O)Nc1cccc(-c2ccnc3c2CC(C(=O)NCCN(C)C)O3)c1 (configuration not stated),inactive: 3.99%
17,CC(=O)Nc1ccc(C(=O)OCC(=O)N2CC3(C)CC2CC(C)(C)C3)cc1 (configuration not stated),inactive: -1.46%
18,Cc1ccc(S(=O)(=O)N2CCCCC2)cc1NC(=O)c1ccc2ccccc2n1,inactive: 6.06%
19,OC1CCCN(CC(O)COC(c2ccccc2)c2ccccc2)C1 (configuration not stated),inactive: -2.03%
20,Cc1ccc(C(=O)NCCNC(=O)COc2ccccc2Cl)cn1,inactive: -0.943%
21,COc1ccc(NC(=O)c2ccc3nc(C)c(N(C)C(=O)CCc4ccccc4)n3c2)cc1OC,inactive: 16.4%
22,CC(C)Oc1ccc(C(=O)N(Cc2ccc(N(C)C)cc2)Cc2ccco2)cc1,inactive: 10.9%

row,SMILES,growth rescue (activation)
1,COc1ccc(-c2cc(CNS(=O)(=O)c3ccccc3)on2)cc1,inactive: 12.6%
2,COc1ccc(/C=C/C(=O)Nc2ccccc2F)cc1S(=O)(=O)N1CCOCC1,inactive: -23.3%
3,CC(C)OC(=O)C1C(=O)CC(C)(O)C(C(=O)OC(C)C)C1c1ccccc1 (configuration not stated),inactive: 7.7%
4,Cc1cc(C(=O)CCl)c(C)n1-c1c(C)n(C)n(-c2ccccc2)c1=O,inactive: 8.03%
5,COc1cccc(C(C)(O)c2nc(-c3ccc(F)c(Cl)c3)cs2)c1 (configuration not stated),inactive: -41.1%
6,O=C(N/N=C/c1ccc2c(c1)OCO2)c1cccnc1,inactive: 2.19%
7,O=C(NC1CC1)c1nc(Cn2ccc([N+](=O)[O-])n2)no1,inactive: -11.3%
8,Cn1nnc(NC(=S)NC(=O)c2cccc3ccccc23)n1,inactive: 22.9%
9,CC1Cc2ccccc2N1C(=S)Nc1cccc(S(=O)(=O)N(C)C)c1 (configuration not stated),inactive: 23.4%
10,CC(NS(=O)(=O)c1ccccc1Cl)C1CC2CCC1C2 (configuration not stated),inactive: -5.55%
11,COc1ccc(C(=O)NCC2(c3ccccc3)CCOCC2)cc1[N+](=O)[O-],inactive: 3.64%
12,CCN(CC)c1ccc(NC(=O)COc2ccc(-n3cnnn3)cc2)cc1,inactive: 9.05%
13,Cn1nccc1C(=O)Nc1ccc(S(=O)(=O)N2CCCC2)cc1,inactive: 11.5%
14,CC(C)n1cc(NC(=O)COc2ccccc2Cl)cn1,inactive: 14.5%
15,CN(C)c1ccc(/C=C2\C(=N)N3N=C(CC(=O)N4CCCCC4)SC3=NC2=O)cc1,inactive: -9.32%
16,C/C(=N\NC(=O)c1ccc(CSc2nncn2C)cc1)c1ccc(Cl)cc1,inactive: 5.96%
17,CCOC(=O)C1(Cc2ccc(OC)cc2)CCN(C(=O)c2csc(C)n2)CC1,inactive: 13.7%
18,Cn1ncc(Cl)c1C(=O)N1CCOCC1,inactive: 7.07%
19,CC(NC(=O)c1ccccc1Br)c1nnc(SCC(=O)NC2=NCCS2)n1C (configuration not stated),inactive: -16.9%

# From PubChem BioAssay AID1347073 (National Center for Advancing Translational Sciences (NCATS), 2019)
